Data from article PMC6078952.
Results are given in words; binding and its absence hold for the method and conditions named.

Protein sequences, listed by entry. Tags and fused reporters are not part of them. Lines headed by an entry give the natural chain unless they say otherwise; changes in a name come on top. Chains listed by the source or under a name are the forms on record and can include a tag or linker. Residues count along the entry.
UniProt P39060, residues 1572-1754: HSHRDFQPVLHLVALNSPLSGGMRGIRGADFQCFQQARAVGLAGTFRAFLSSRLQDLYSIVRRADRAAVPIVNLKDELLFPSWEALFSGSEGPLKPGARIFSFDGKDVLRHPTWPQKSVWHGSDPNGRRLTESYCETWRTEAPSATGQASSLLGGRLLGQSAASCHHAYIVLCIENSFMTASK
UniProt P06756: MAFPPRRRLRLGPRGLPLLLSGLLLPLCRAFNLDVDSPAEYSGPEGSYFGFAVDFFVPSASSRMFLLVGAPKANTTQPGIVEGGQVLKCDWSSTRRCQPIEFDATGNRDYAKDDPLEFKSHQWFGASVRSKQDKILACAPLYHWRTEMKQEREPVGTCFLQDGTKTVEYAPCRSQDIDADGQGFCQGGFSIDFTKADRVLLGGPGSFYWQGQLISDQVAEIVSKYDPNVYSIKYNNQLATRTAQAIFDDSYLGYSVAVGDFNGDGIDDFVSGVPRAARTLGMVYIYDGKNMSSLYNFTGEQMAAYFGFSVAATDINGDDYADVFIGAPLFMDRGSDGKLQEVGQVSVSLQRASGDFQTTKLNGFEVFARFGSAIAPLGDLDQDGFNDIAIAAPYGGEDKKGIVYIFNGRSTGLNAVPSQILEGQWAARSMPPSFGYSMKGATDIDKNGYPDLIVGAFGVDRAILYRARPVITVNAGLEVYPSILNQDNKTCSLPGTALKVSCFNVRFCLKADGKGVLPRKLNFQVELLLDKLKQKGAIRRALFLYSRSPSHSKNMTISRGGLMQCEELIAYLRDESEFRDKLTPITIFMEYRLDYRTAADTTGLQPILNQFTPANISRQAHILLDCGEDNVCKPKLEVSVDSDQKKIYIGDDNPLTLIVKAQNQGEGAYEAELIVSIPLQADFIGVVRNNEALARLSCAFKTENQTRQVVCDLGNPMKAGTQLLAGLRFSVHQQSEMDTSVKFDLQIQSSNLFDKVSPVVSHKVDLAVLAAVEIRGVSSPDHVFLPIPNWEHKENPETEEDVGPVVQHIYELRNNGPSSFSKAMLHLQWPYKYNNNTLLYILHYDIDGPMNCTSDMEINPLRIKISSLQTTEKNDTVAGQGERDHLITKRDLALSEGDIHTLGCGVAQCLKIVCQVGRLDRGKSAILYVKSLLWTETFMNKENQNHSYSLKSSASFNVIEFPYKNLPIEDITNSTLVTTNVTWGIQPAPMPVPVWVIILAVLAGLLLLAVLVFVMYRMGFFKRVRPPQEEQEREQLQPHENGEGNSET
UniProt P04004, residues 20-478: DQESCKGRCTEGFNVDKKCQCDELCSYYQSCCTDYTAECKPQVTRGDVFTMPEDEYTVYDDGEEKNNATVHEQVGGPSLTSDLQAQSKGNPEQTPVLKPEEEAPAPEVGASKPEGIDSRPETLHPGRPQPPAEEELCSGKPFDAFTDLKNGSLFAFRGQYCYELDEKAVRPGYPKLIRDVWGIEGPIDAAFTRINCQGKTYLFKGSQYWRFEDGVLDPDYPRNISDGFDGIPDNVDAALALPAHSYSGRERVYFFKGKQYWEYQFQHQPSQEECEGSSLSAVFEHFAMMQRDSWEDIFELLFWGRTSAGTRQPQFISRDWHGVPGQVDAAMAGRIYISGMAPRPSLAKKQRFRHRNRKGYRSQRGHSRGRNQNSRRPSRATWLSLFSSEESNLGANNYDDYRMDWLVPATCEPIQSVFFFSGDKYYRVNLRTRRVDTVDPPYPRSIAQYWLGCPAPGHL
UniProt O95967, residues 26-443: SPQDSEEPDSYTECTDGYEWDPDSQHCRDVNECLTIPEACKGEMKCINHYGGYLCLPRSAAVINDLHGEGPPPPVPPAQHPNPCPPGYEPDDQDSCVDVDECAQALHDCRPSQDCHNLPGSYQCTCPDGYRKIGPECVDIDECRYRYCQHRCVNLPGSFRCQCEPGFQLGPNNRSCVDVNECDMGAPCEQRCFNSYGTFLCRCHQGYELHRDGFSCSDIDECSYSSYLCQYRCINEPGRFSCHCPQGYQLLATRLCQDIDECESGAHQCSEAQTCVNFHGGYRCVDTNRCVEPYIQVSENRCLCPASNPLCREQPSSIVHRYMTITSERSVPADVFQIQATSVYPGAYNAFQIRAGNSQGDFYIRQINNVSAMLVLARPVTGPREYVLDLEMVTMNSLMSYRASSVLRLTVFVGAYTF
Lysyl oxidase propeptide (LOX-PP) (Pro24Leu) (P28300, form named): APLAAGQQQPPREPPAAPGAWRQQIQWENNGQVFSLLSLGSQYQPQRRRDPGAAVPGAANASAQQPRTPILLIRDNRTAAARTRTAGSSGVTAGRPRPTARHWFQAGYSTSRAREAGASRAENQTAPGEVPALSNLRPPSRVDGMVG

How the values were obtained:
Assay in all cases: SPR; SPR imaging (SPRi, Biacore Flexchip): partners spotted in triplicate on a bare gold chip at 0.06 to 1 mg/ml; purified LOX-PP injected at 2 µM and recirculated for 20 min; PBS with 0.05% Tween 20, 25 °C; both purified
[1] = target: Endostatin (expressed in HEK293 cells) (UniProt P39060)
[2] = target: Integrin αvβ5 ectodomain (UniProt P06756)
[3] = target: T1, Syndecan-4 ectodomain (UniProt P31431)
T1 sequence: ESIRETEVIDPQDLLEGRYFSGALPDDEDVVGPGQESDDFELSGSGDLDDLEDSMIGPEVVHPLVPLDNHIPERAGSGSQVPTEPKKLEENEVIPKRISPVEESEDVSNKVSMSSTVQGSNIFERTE

[4] = target: Vitronectin (UniProt P04004)
[5] = target: T2, Glypican 1 (UniProt P35052)
T2 sequence: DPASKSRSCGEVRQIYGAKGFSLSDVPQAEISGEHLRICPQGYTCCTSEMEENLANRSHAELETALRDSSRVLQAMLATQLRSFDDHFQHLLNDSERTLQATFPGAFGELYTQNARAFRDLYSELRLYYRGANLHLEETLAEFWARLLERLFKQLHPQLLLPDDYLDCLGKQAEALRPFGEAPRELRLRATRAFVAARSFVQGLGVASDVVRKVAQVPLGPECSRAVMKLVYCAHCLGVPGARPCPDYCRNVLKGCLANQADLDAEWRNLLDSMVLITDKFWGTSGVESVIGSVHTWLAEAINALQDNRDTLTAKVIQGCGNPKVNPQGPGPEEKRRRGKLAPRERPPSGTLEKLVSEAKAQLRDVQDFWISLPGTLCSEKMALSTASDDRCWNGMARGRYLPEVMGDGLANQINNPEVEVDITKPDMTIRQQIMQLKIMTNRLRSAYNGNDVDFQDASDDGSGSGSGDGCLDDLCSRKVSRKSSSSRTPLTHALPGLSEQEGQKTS

[6] = target: Fibulin 4 (UniProt O95967)
[7] = target: T3, Reelin (UniProt Q60841)
T3 sequence: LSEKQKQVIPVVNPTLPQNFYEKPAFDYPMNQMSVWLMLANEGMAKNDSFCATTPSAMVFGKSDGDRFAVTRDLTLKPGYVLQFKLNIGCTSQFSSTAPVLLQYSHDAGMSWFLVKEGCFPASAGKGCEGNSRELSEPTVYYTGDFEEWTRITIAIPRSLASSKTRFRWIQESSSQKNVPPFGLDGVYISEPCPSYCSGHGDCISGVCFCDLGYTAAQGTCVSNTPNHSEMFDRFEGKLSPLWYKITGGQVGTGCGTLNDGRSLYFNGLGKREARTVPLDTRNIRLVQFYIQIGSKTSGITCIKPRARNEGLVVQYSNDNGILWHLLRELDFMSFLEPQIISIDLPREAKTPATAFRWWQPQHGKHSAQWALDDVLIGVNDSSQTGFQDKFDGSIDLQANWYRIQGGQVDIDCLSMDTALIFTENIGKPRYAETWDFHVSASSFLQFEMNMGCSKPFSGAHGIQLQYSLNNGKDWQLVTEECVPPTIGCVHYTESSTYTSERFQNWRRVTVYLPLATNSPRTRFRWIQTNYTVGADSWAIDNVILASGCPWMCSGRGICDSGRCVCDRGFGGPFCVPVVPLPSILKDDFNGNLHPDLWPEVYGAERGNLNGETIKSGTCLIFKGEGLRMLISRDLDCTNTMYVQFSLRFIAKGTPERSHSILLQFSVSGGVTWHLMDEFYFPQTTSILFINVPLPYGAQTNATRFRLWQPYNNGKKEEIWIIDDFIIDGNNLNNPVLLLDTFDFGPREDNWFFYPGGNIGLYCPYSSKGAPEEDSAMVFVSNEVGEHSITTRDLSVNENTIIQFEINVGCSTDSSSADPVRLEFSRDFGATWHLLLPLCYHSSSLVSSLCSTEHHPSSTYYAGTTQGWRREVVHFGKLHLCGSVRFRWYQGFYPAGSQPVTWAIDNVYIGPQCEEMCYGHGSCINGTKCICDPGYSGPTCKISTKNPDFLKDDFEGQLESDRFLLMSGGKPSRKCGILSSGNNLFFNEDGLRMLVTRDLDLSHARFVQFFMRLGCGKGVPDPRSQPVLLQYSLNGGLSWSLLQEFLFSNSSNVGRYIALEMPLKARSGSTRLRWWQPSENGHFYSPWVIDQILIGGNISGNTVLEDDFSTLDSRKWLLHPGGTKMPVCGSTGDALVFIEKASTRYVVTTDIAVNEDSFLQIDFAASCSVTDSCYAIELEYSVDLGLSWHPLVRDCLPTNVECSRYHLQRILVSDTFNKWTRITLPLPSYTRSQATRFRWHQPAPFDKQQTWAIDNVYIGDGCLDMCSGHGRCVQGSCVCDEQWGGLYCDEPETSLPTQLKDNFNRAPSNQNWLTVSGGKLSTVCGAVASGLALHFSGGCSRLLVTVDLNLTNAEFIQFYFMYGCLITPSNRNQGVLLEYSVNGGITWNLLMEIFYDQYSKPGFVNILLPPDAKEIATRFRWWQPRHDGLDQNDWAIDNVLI

Measured: binding

Lysyl oxidase propeptide (LOX-PP) (Pro24Leu) (from UniProt P28300 22-168) (domain or fragment)
no binding (tested: 2 µM): all assays above
